# Assay results as given in the RNAGym collection of RNA variant scans (doi:10.1093/nar/gkz1192).
# Read counts are not given, so values of variants with three or more changes are uncertain.
# B1: CPEB3 Ribozyme (parent)
# chain: UAACAGGGGGCCACAGCAGAAGCGUUCACGUCGCAGCCCCUGUCAGAUUCUGGUGAAUCUGCGAAUUCUGCUGUAUAUCUC
# Variants of: B1
# Assay: self-cleavage, relative activity (ratio to wild type); higher = more cleavage; in vitro, sequencing
# How it was run: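 Relative activity was defined as the cleaved/total read fraction for a variant divided by the same fraction for the unmutated ribozyme. CPEB3 self-cleaving ribozyme libraries were made by rounds of error-prone PCR, barcoded, and transcribed in vitro with T7 RNA polymerase for 5 hours at 37°C, and cleavage ran through transcription plus a 15 min DNase I step before EDTA. Illumina sequencing of template-switched reverse transcripts gave the reads, and DNA sequencing mapped the barcodes. Averages come from three batches, using variants with at least 5 reads.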
row,Variant,self-cleavage
1,UAACAGGGGGCCACAGCAGAAGCGUUCACGUCGCAGCCCCUGUCAGAUUCAUGUGAAACUGCGAAUUCUGCUGUAUACCUC [U51A G52U U58A U78C],0.67
2,UAACAGGGGGCCACAGCAGAAGCGUUCACGUCGCAGCCCCUGUCAGAUUCAGAUGAAUCUACGAAUUCUGCUGUAUAUCUC [U51A G53A G61A],1.16
3,UAACAGGGGGCCACAGCAGAAGCGUUCACGUCGCAGCCCCUGUCAGAUUCAGACGAAUCUGCGAAUUCUGCUGUAUAUCUC [U51A G53A U54C],1.21
4,UAACAGGGGGCCACAGCAGAAGCGUUCACGUCGCAGCCCCUGUCAGAUUCAGAUGAAUCUGCGAACUCUGCCGUAUAUCUC [U51A G53A U66C U72C],0.72
5,UAACAGGGGGCCACAGCAGAAGCGUUCACGUCGCAGCCCCUGUCAGAUUCAGUCGAUUCUGCGAUCUCCGCUGUAUAUCUC [U51A G53U U54C A57U A65U U66C U69C],0.43
6,UAACAGGGGGCCACAGCAGAAGCGUUCACGUCGCAGCCCCUGUCAGAUUCAGGUAAAUCCGCGAAUUCUGCUGUAUAUCUC [U51A G55A U60C],0.34
7,UAACAGGGGGCCACAGCAGAAGCGUUCACGUCGCAGCCCCUGUCAGAUUCAGGUUAAUCUGCGAAUCCUGCUGCAUAUCUC [U51A G55U U67C U74C],0.35
8,UAACAGGGGGCCACAGCAGAAGCGUUCACGUCGCAGCCCCUGUCAGAUUCAGGUGAAUCUGCUCAUUCUGCUGUAUAUCUC [U51A G63U A64C],0.21
9,UAACAGGGGGCCACAGCAGAAGCGUUCACGUCGCAGCCCCUGUCAGAUUCAGGUGAAUCUGCUCAUUCUGCUGUACAUCUC [U51A G63U A64C U76C],0.19
10,UAACAGGGGGCCACAGCAGAAGCGUUCACGUCGCAGCCCCUGUCAGAUUCAGGAGAAUCUGCGAAUUCUGCUGUAUAUCCC [U51A U54A U80C],0.99
11,UAACAGGGGGCCACAGCAGAAGCGUUCACGUCGCAGCCCCUGUCAGAUUCAGGCGGAUCAGCGAAUCCUGCUGUAUAUCCA [U51A U54C A56G U60A U67C U80C C81A],0.4
12,UAACAGGGGGCCACAGCAGAAGCGUUCACGUCGCAGCCCCUGUCAGAUUCAGGCGAAUUUGCGGAUUCUGCCGUAUAUCCC [U51A U54C C59U A64G U72C U80C],0.52
13,UAACAGGGGGCCACAGCAGAAGCGUUCACGUCGCAGCCCCUGUCAGAUUCAGGCGAACCUGCGAAUUCUGCUGUAUAUCUC [U51A U54C U58C],0.61
14,UAACAGGGGGCCACAGCAGAAGCGUUCACGUCGCAGCCCCUGUCAGAUUCAGGCGAACCUGCGAAUUCUGCUGUAUGUCUC [U51A U54C U58C A77G],0.42
15,UAACAGGGGGCCACAGCAGAAGCGUUCACGUCGCAGCCCCUGUCAGAUUCAGGCGAAUCUGCGAAUUCCGCUGUAUAUCUC [U51A U54C U69C],0.75
16,UAACAGGGGGCCACAGCAGAAGCGUUCACGUCGCAGCCCCUGUCAGAUUCAGGCGAAUCUGCGAAUUCUGCCGUAUAUCUC [U51A U54C U72C],1.12
17,UAACAGGGGGCCACAGCAGAAGCGUUCACGUCGCAGCCCCUGUCAGAUUCAGGUGAAACUACGAAUUCUGCUGUAUAUCUC [U51A U58A G61A],0.46

row,Variant,self-cleavage
1,UAACAGGGGGCCACAGCAGAAGCGUUCACGUCGCAGCCCCUGUCAGAUUCAGGUGAAACUGCGAAUUCCGCUGUAUAUCUC [U51A U58A U69C],0.36
2,UAACAGGGGGCCACAGCAGAAGCGUUCACGUCGCAGCCCCUGUCAGAUUCAGGUGAACCUCCGAAAUCUGCUGUAUAUCUC [U51A U58C G61C U66A],0.3
3,UAACAGGGGGCCACAGCAGAAGCGUUCACGUCGCAGCCCCUGUCAGAUUCAGGUGAACCUGCGAAUUCUGCCGUAUAUCUC [U51A U58C U72C],0.57
4,UAACAGGGGGCCACAGCAGAAGCGUUCACGUCGCAGCCCCUGUCAGAUUCAGGUGAACCUGCGAAUUCUGCUGCAUACCUC [U51A U58C U74C U78C],0.61
5,UAACAGGGGGCCACAGCAGAAGCGUUCACGUCGCAGCCCCUGUCAGAUUCAGGUGAAUCAGCGAAUUAUGCUGUAUAUCUC [U51A U60A C68A],0.44
6,UAACAGGGGGCCACAGCAGAAGCGUUCACGUCGCAGCCCCUGUCAGAUUCAGGUGAAUCAGCGAAUUCUGGUGUAUAUCCC [U51A U60A C71G U80C],0.55
7,UAACAGGGGGCCACAGCAGAAGCGUUCACGUCGCAGCCCCUGUCAGAUUCAGGUGAAUCAGCGAAUUCUGUUGUAUAUCUC [U51A U60A C71U],0.19
8,UAACAGGGGGCCACAGCAGAAGCGUUCACGUCGCAGCCCCUGUCAGAUUCAGGUGAAUCCGCGUAUUCAGCUGUAUAUCAC [U51A U60C A64U U69A U80A],0.34
9,UAACAGGGGGCCACAGCAGAAGCGUUCACGUCGCAGCCCCUGUCAGAUUCAGGUGAAUCCGCGUAUUCUGCCGUACAUCUC [U51A U60C A64U U72C U76C],0.48
10,UAACAGGGGGCCACAGCAGAAGCGUUCACGUCGCAGCCCCUGUCAGAUUCAGGUGAAUCCGCGAAUUCAGCUGUAUAUCUC [U51A U60C U69A],0.34
11,UAACAGGGGGCCACAGCAGAAGCGUUCACGUCGCAGCCCCUGUCAGAUUCAGGUGAAUCUGCGAAACCUGCUGUAUAUCCC [U51A U66A U67C U80C],0.32
12,UAACAGGGGGCCACAGCAGAAGCGUUCACGUCGCAGCCCCUGUCAGAUUCAGGUGAAUCUGCGAAGUCCGCUGUAUAUCUC [U51A U66G U69C],0.09
13,UAACAGGGGGCCACAGCAGAAGCGUUCACGUCGCAGCCCCUGUCAGAUUCAGGUGAAUCUGCGAAUUCAGCCGUAUAUCUC [U51A U69A U72C],0.48
14,UAACAGGGGGCCACAGCAGAAGCGUUCACGUCGCAGCCCCUGUCAGAUUCAGGUGAAUCUGCGAAUUCCGCAGUAUAUCCC [U51A U69C U72A U80C],0.64
15,UAACAGGGGGCCACAGCAGAAGCGUUCACGUCGCAGCCCCUGUCAGAUUCAGGUGAAUCUGCGAAUUCGGCUGUGUGUCUC [U51A U69G A75G A77G],0.55
16,UAACAGGGGGCCACAGCAGAAGCGUUCACGUCGCAGCCCCUGUCAGAUUCAGGUGAAUCUGCGAAUUCGGCUGUAUAUCCC [U51A U69G U80C],0.83
17,UAACAGGGGGCCACAGCAGAAGCGUUCACGUCGCAGCCCCUGUCAGAUUCAGGUGAAUCUGCGAAUUCUGCAGUAUACCUC [U51A U72A U78C],0.58
